According to paper PMC5241739, “Structure of the Toll/Interleukin-1 Receptor (TIR) Domain of the B-cell Adaptor That Links Phosphoinositide Metabolism with the Negative Regulation of the Toll-like Receptor (TLR) Signalosome*^([image sbox.jpg])” (The Journal of Biological Chemistry, 2016):
These are yes or no findings as the source states them, for the method shown. For some of these results: In cells and extracts the contact can be indirect. Some results given as binding are weak or reduced against the parent protein; the word gives no strength. For some of these results: Where a sequence is shown, tags or fusion partners need not be part of it.

Protein sequences, listed by entry. Tags and fused reporters are not part of them. Lines headed by an entry give the natural chain unless they say otherwise; changes in a name come on top. Residues count along the entry.
UniProt P58753: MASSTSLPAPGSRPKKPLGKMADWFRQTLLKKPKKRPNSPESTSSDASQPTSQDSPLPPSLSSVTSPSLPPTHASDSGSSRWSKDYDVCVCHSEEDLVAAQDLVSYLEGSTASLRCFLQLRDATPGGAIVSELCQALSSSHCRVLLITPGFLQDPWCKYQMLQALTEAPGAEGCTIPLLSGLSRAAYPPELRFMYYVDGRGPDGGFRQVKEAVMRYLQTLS
UniProt O60603, residues 636-784: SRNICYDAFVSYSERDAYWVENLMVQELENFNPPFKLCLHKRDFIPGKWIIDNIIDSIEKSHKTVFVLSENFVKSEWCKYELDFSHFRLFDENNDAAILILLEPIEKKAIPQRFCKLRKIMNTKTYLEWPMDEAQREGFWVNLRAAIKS
UniProt O00206, residues 671-820: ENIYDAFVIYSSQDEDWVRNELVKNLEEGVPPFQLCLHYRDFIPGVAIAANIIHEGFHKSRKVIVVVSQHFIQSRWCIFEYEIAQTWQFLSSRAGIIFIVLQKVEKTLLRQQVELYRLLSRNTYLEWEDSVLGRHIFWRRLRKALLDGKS

T1: FLAG-SARM (UniProt Q6SZW1)
T1 sequence: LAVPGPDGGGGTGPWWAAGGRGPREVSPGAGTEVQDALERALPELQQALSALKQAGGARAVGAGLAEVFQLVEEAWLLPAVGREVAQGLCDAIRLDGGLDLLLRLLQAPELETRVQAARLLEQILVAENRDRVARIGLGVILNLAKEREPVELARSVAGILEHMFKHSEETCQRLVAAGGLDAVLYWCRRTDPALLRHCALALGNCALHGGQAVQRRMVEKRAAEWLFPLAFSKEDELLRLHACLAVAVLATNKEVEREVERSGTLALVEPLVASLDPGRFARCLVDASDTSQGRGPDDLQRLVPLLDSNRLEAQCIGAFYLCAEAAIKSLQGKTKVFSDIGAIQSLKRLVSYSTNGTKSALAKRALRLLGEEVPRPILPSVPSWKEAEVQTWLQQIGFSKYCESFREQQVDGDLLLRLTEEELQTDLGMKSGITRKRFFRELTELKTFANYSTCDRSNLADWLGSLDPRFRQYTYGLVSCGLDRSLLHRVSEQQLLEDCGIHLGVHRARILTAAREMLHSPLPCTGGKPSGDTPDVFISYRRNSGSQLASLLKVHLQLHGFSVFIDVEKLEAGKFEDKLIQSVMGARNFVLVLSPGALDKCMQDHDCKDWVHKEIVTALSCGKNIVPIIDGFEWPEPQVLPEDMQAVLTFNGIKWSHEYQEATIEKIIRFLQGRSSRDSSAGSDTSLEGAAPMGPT

T2: BCAP-TDA, the first 434 amino acids of human BCAP (human) (UniProt Q6ZUJ8)
T2 sequence: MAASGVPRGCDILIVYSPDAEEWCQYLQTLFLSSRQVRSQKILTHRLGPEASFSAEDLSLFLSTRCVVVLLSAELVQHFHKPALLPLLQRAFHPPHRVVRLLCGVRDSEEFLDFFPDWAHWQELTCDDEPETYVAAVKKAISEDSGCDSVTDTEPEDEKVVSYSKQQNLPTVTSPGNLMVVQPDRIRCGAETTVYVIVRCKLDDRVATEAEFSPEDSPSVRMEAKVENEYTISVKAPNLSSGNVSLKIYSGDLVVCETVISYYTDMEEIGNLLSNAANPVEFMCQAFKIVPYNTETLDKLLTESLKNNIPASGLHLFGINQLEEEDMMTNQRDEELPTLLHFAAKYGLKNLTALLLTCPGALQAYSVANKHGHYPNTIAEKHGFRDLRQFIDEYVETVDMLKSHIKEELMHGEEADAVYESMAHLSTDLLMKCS


What follows are molecules tested against T1, FLAG-SARM (assay: co-IP; HEK 293T cells transfected 24 h, lysate precipitated with anti-FLAG M2 beads 2 h at 4 °C, Western blot for the tags; with or without co-expressed Syk, Lyn or PLCγ2).

binding	Molecule
binds	Myc-BCAP-FL (protein, UniProt Q6ZUJ8 1-805) MAASGVPRGCDILIVYSPDAEEWCQYLQTLFLSSRQVRSQKILTHRLGPEASFSAEDLSLFLSTRCVVVLLSAELVQHFHKPALLPLLQRAFHPPHRVVRLLCGVRDSEEFLDFFPDWAHWQELTCDDEPETYVAAVKKAISEDSGCDSVTDTEPEDEKVVSYSKQQNLPTVTSPGNLMVVQPDRIRCGAETTVYVIVRCKLDDRVATEAEFSPEDSPSVRMEAKVENEYTISVKAPNLSSGNVSLKIYSGDLVVCETVISYYTDMEEIGNLLSNAANPVEFMCQAFKIVPYNTETLDKLLTESLKNNIPASGLHLFGINQLEEEDMMTNQRDEELPTLLHFAAKYGLKNLTALLLTCPGALQAYSVANKHGHYPNTIAEKHGFRDLRQFIDEYVETVDMLKSHIKEELMHGEEADAVYESMAHLSTDLLMKCSLNPGCDEDLYESMAAFVPAATEDLYVEMLQASTSNPIPGDGFSRATKDSMIRKFLEGNSMGMTNLERDQCHLGQEEDVYHTVDDDEAFSVDLASRPPVPVPRPETTAPGAHQLPDNEPYIFKVFAEKSQERPGNFYVSSESIRKGPPVRPWRDRPQSSIYDPFAGMKTPGQRQLITLQEQVKLGIVNVDEAVLHFKEWQLNQKKRSESFRFQQENLKRLRDSITRRQREKQKSGKQTDLEITVPIRHSQHLPAKVEFGVYESGPRKSVIPPRTELRRGDWKTDSTSSTASSTSNRSSTRSLLSVSSGMEGDNEDNEVPEVTRSRSPGPPQVDGTPTMSLERPPRVPPRAASQRPPTRETFHPPPPVPPRGR

These molecules were tested against T2, BCAP-TDA, the first 434 amino acids of human BCAP (human) (assay: two-hybrid; Matchmaker system; bait GAL4-DBD in AH109 mated with prey GAL4-AD in Y187; growth on SD/−Leu/−Trp/−His/−Ade + Xα-Gal + 5 mM 3-AT).

binding	Molecule
binds	MAL/TIRAP, full-length construct (yeast two-hybrid prey) (from UniProt P58753 1-221)
binds	TIR domain of TLR2 (residues 636–784) (from UniProt O60603 636-784) (domain or fragment)
binds	MAL/TIRAP D96N, full-length construct (yeast two-hybrid prey) (from UniProt P58753 1-221)
binds	TIR domain of TLR4 (residues 671–820) (from UniProt O00206 671-820) (domain or fragment)
binds	MAL/TIRAP S180L, full-length construct (yeast two-hybrid prey) (from UniProt P58753 1-221)

Each molecule was assayed against MAL/TIRAP (co-immunoprecipitation of supplemental Fig. 3) (human) (UniProt P58753) (assay: co-IP; co-immunoprecipitation of BCAP mutants and MAL/TIRAP (supplemental Fig. 3); methods not shown).

Molecule	binding
BCAP (wild type, co-immunoprecipitation of supplemental Fig. 3) (protein, UniProt Q6ZUJ8 1-805) MAASGVPRGCDILIVYSPDAEEWCQYLQTLFLSSRQVRSQKILTHRLGPEASFSAEDLSLFLSTRCVVVLLSAELVQHFHKPALLPLLQRAFHPPHRVVRLLCGVRDSEEFLDFFPDWAHWQELTCDDEPETYVAAVKKAISEDSGCDSVTDTEPEDEKVVSYSKQQNLPTVTSPGNLMVVQPDRIRCGAETTVYVIVRCKLDDRVATEAEFSPEDSPSVRMEAKVENEYTISVKAPNLSSGNVSLKIYSGDLVVCETVISYYTDMEEIGNLLSNAANPVEFMCQAFKIVPYNTETLDKLLTESLKNNIPASGLHLFGINQLEEEDMMTNQRDEELPTLLHFAAKYGLKNLTALLLTCPGALQAYSVANKHGHYPNTIAEKHGFRDLRQFIDEYVETVDMLKSHIKEELMHGEEADAVYESMAHLSTDLLMKCSLNPGCDEDLYESMAAFVPAATEDLYVEMLQASTSNPIPGDGFSRATKDSMIRKFLEGNSMGMTNLERDQCHLGQEEDVYHTVDDDEAFSVDLASRPPVPVPRPETTAPGAHQLPDNEPYIFKVFAEKSQERPGNFYVSSESIRKGPPVRPWRDRPQSSIYDPFAGMKTPGQRQLITLQEQVKLGIVNVDEAVLHFKEWQLNQKKRSESFRFQQENLKRLRDSITRRQREKQKSGKQTDLEITVPIRHSQHLPAKVEFGVYESGPRKSVIPPRTELRRGDWKTDSTSSTASSTSNRSSTRSLLSVSSGMEGDNEDNEVPEVTRSRSPGPPQVDGTPTMSLERPPRVPPRAASQRPPTRETFHPPPPVPPRGR	binds
BCAP Pro-49 mutated to alanine (protein, UniProt Q6ZUJ8 1-805) MAASGVPRGCDILIVYSPDAEEWCQYLQTLFLSSRQVRSQKILTHRLGAEASFSAEDLSLFLSTRCVVVLLSAELVQHFHKPALLPLLQRAFHPPHRVVRLLCGVRDSEEFLDFFPDWAHWQELTCDDEPETYVAAVKKAISEDSGCDSVTDTEPEDEKVVSYSKQQNLPTVTSPGNLMVVQPDRIRCGAETTVYVIVRCKLDDRVATEAEFSPEDSPSVRMEAKVENEYTISVKAPNLSSGNVSLKIYSGDLVVCETVISYYTDMEEIGNLLSNAANPVEFMCQAFKIVPYNTETLDKLLTESLKNNIPASGLHLFGINQLEEEDMMTNQRDEELPTLLHFAAKYGLKNLTALLLTCPGALQAYSVANKHGHYPNTIAEKHGFRDLRQFIDEYVETVDMLKSHIKEELMHGEEADAVYESMAHLSTDLLMKCSLNPGCDEDLYESMAAFVPAATEDLYVEMLQASTSNPIPGDGFSRATKDSMIRKFLEGNSMGMTNLERDQCHLGQEEDVYHTVDDDEAFSVDLASRPPVPVPRPETTAPGAHQLPDNEPYIFKVFAEKSQERPGNFYVSSESIRKGPPVRPWRDRPQSSIYDPFAGMKTPGQRQLITLQEQVKLGIVNVDEAVLHFKEWQLNQKKRSESFRFQQENLKRLRDSITRRQREKQKSGKQTDLEITVPIRHSQHLPAKVEFGVYESGPRKSVIPPRTELRRGDWKTDSTSSTASSTSNRSSTRSLLSVSSGMEGDNEDNEVPEVTRSRSPGPPQVDGTPTMSLERPPRVPPRAASQRPPTRETFHPPPPVPPRGR	binds

Results, then the molecule that gave them:

binding	Molecule
binds	BCAP Pro-49 mutated to aspartic acid (protein, UniProt Q6ZUJ8 1-805) MAASGVPRGCDILIVYSPDAEEWCQYLQTLFLSSRQVRSQKILTHRLGDEASFSAEDLSLFLSTRCVVVLLSAELVQHFHKPALLPLLQRAFHPPHRVVRLLCGVRDSEEFLDFFPDWAHWQELTCDDEPETYVAAVKKAISEDSGCDSVTDTEPEDEKVVSYSKQQNLPTVTSPGNLMVVQPDRIRCGAETTVYVIVRCKLDDRVATEAEFSPEDSPSVRMEAKVENEYTISVKAPNLSSGNVSLKIYSGDLVVCETVISYYTDMEEIGNLLSNAANPVEFMCQAFKIVPYNTETLDKLLTESLKNNIPASGLHLFGINQLEEEDMMTNQRDEELPTLLHFAAKYGLKNLTALLLTCPGALQAYSVANKHGHYPNTIAEKHGFRDLRQFIDEYVETVDMLKSHIKEELMHGEEADAVYESMAHLSTDLLMKCSLNPGCDEDLYESMAAFVPAATEDLYVEMLQASTSNPIPGDGFSRATKDSMIRKFLEGNSMGMTNLERDQCHLGQEEDVYHTVDDDEAFSVDLASRPPVPVPRPETTAPGAHQLPDNEPYIFKVFAEKSQERPGNFYVSSESIRKGPPVRPWRDRPQSSIYDPFAGMKTPGQRQLITLQEQVKLGIVNVDEAVLHFKEWQLNQKKRSESFRFQQENLKRLRDSITRRQREKQKSGKQTDLEITVPIRHSQHLPAKVEFGVYESGPRKSVIPPRTELRRGDWKTDSTSSTASSTSNRSSTRSLLSVSSGMEGDNEDNEVPEVTRSRSPGPPQVDGTPTMSLERPPRVPPRAASQRPPTRETFHPPPPVPPRGR
binds	BCAP L401A (protein, UniProt Q6ZUJ8 1-805) MAASGVPRGCDILIVYSPDAEEWCQYLQTLFLSSRQVRSQKILTHRLGPEASFSAEDLSLFLSTRCVVVLLSAELVQHFHKPALLPLLQRAFHPPHRVVRLLCGVRDSEEFLDFFPDWAHWQELTCDDEPETYVAAVKKAISEDSGCDSVTDTEPEDEKVVSYSKQQNLPTVTSPGNLMVVQPDRIRCGAETTVYVIVRCKLDDRVATEAEFSPEDSPSVRMEAKVENEYTISVKAPNLSSGNVSLKIYSGDLVVCETVISYYTDMEEIGNLLSNAANPVEFMCQAFKIVPYNTETLDKLLTESLKNNIPASGLHLFGINQLEEEDMMTNQRDEELPTLLHFAAKYGLKNLTALLLTCPGALQAYSVANKHGHYPNTIAEKHGFRDLRQFIDEYVETVDMAKSHIKEELMHGEEADAVYESMAHLSTDLLMKCSLNPGCDEDLYESMAAFVPAATEDLYVEMLQASTSNPIPGDGFSRATKDSMIRKFLEGNSMGMTNLERDQCHLGQEEDVYHTVDDDEAFSVDLASRPPVPVPRPETTAPGAHQLPDNEPYIFKVFAEKSQERPGNFYVSSESIRKGPPVRPWRDRPQSSIYDPFAGMKTPGQRQLITLQEQVKLGIVNVDEAVLHFKEWQLNQKKRSESFRFQQENLKRLRDSITRRQREKQKSGKQTDLEITVPIRHSQHLPAKVEFGVYESGPRKSVIPPRTELRRGDWKTDSTSSTASSTSNRSSTRSLLSVSSGMEGDNEDNEVPEVTRSRSPGPPQVDGTPTMSLERPPRVPPRAASQRPPTRETFHPPPPVPPRGR
